Entries after “also recorded” stand apart in the source; their conditions may differ. Not every entry of the source has a single result; some have several. This list holds those alone. How the calls were made is not given here. There may be further records. The records of an entry differ, and nothing given here explains why; dose, time, organism, isomer or construct need not be as stated for each record. What stands in brackets tells the records apart. A, B and so on number the origins entry by entry. Signs of the kind (2×) give the number of equal values in this list.
System: CCRIS mutagenicity, Ames/micronucleus/aberration tests
Assay: CCRIS mutagenicity studies
[1] = End Point: In vitro chromosomal aberrations, Test System: Chinese hamster lung (CHL/IU) cells, Metabolic Activation: None
[2] = Test System: AMES SALMONELLA TYPHIMURIUM, Strain/Indicator: TA100, Metabolic Activation: RAT, LIVER, S-9, AROCLOR 1254, Method: STANDARD PLATE
[3] = Test System: AMES SALMONELLA TYPHIMURIUM, Strain/Indicator: TA98, Metabolic Activation: NONE, Method: PREINCUBATION
[4] = Test System: AMES SALMONELLA TYPHIMURIUM, Strain/Indicator: TA100, Metabolic Activation: NONE, Method: PREINCUBATION

Structure (SMILES): CC(=O)OCc1cc(C(C)=O)ccc1OC(C)=O
- mutagenic call (Test System: AMES SALMONELLA TYPHIMURIUM, Strain/Indicator: TA98(PKM101), Metabolic Activation: NONE, Method: STANDARD PLATE): inactive; negative [study A] and active; positive [study B]

Structure (SMILES): O=C(O)c1cc2ccccc2cc1O
- mutagenic call [1]: active; positive (structural changes and ploidy). precipitation of test chemical at 1.0; also recorded: active; positive (structural changes and ploidy); also recorded: active; positive (structural changes and ploidy). weak response
- mutagenic call (Test System: AMES SALMONELLA TYPHIMURIUM, Strain/Indicator: TA1537, Metabolic Activation: NONE, Method: PREINCUBATION): inactive; negative [study A] and active; positive [study B] and inactive; negative [study C]

Structure (SMILES): Oc1ccc2c(ccc3c4ccccc4ccc23)c1
- mutagenic call [2]: active; positive [study A] and inactive; negative [study B]

Structure (SMILES): CN(C)c1ccccc1
- mutagenic call [1]: active; positive (structural changes and ploidy); weak response. precipitation in cultur; also recorded: active; positive (structural changes). precipitation at all doses, toxicity and precipit; also recorded: active; positive (structural changes). precipitation at 0.4, 0.6 and 0.8 mg/ml

Structure (SMILES): CC(=O)Nc1ccc(C(=O)CCl)cc1
- mutagenic call (Test System: AMES SALMONELLA TYPHIMURIUM, Strain/Indicator: TA98, Metabolic Activation: MOUSE, LIVER, S-9, AROCLOR 1254, Method: STANDARD PLATE): inactive; negative and active; positive
- mutagenic call (Test System: AMES SALMONELLA TYPHIMURIUM, Strain/Indicator: TA98, Metabolic Activation: NONE, Method: STANDARD PLATE): inactive; negative and active; positive
- mutagenic call (Test System: AMES SALMONELLA TYPHIMURIUM, Strain/Indicator: TA1537, Metabolic Activation: HAMSTER, LIVER, S-9, AROCLOR 1254, Method: STANDARD PLATE): inactive; negative and active; positive
- mutagenic call (Test System: AMES SALMONELLA TYPHIMURIUM, Strain/Indicator: TA1537, Metabolic Activation: MOUSE, LIVER, S-9, AROCLOR 1254, Method: STANDARD PLATE): inactive; negative and active; positive
- mutagenic call (Test System: AMES SALMONELLA TYPHIMURIUM, Strain/Indicator: TA1537, Metabolic Activation: NONE, Method: STANDARD PLATE): inactive; negative and active; positive
- mutagenic call (Test System: AMES SALMONELLA TYPHIMURIUM, Strain/Indicator: TA1537, Metabolic Activation: RAT, LIVER, S-9, AROCLOR 1254, Method: STANDARD PLATE): inactive; negative and active; positive
- mutagenic call (Test System: AMES SALMONELLA TYPHIMURIUM, Strain/Indicator: TA1537, Metabolic Activation: RAT, LIVER, S-9, Method: STANDARD PLATE): inactive; negative and active; positive
- mutagenic call (Test System: AMES SALMONELLA TYPHIMURIUM, Strain/Indicator: TA1538, Metabolic Activation: HAMSTER, LIVER, S-9, AROCLOR 1254, Method: STANDARD PLATE): inactive; negative and active; positive
- mutagenic call (Test System: AMES SALMONELLA TYPHIMURIUM, Strain/Indicator: TA1538, Metabolic Activation: HAMSTER, LIVER, S-9, Method: STANDARD PLATE): inactive; negative and active; positive
- mutagenic call (Test System: AMES SALMONELLA TYPHIMURIUM, Strain/Indicator: TA1538, Metabolic Activation: MOUSE, LIVER, S-9, AROCLOR 1254, Method: STANDARD PLATE): inactive; negative and active; positive
- mutagenic call (Test System: AMES SALMONELLA TYPHIMURIUM, Strain/Indicator: TA1538, Metabolic Activation: MOUSE, LIVER, S-9, Method: STANDARD PLATE): inactive; negative and active; positive
- mutagenic call (Test System: AMES SALMONELLA TYPHIMURIUM, Strain/Indicator: TA1538, Metabolic Activation: NONE, Method: STANDARD PLATE): inactive; negative and active; positive

Structure (SMILES): NNc1ccccc1
- mutagenic call (Test System: AMES SALMONELLA TYPHIMURIUM, Strain/Indicator: TA102, Metabolic Activation: NONE, Method: STANDARD PLATE): active; positive [study A] and inactive; negative [study B]

Structure (SMILES): CCCCOCCO
- mutagenic call (Test System: AMES SALMONELLA TYPHIMURIUM, Strain/Indicator: TA97A, Metabolic Activation: NONE, Method: STANDARD PLATE): inactive; negative [study A] and active; positive [study B]

Structure (SMILES): [CH3][Hg][Cl]
- mutagenic call (End Point: IN VITRO CHROMOSOMAL ABERRATIONS, Test System: HUMAN PERIPHERAL LYMPHOCYTES, Metabolic Activation: NONE): active; positive (structural changes and ploidy); also recorded: active; positive (structural changes) (2×)

Structure (SMILES): Nc1ccccc1S(=O)(=O)O
- mutagenic call [3]: active; positive [100 to 6667 µg/plate] and inactive; negative [33 to 3333 µg/plate]

Structure (SMILES): COc1cc([N+](=O)[O-])ccc1N=NC(C(C)=O)C(=O)Nc1ccccc1OC (configuration not stated)
- mutagenic call (Test System: AMES SALMONELLA TYPHIMURIUM, Strain/Indicator: TA1535, Metabolic Activation: NONE, Method: PREINCUBATION): active; positive [study A] and inactive; negative [study B]

Structure (SMILES): CC(=O)CC(=O)Nc1ccc(C)cc1
- mutagenic call (Test System: E. COLI, Strain/Indicator: WP2UVRA/PKM101, Metabolic Activation: RAT, LIVER, S-9, PHENOBARBITAL AND BETA-NAPHTHOFLAVONE, Method: PREINCUBATION): active; positive and inactive; negative

Structure (SMILES): CCOc1ccc(NO)cc1
- mutagenic call [4]: active; positive [study A] and inactive; negative [study B] and active; positive [study C]

Structure (SMILES): Nc1ncc([N+](=O)[O-])s1
- mutagenic call (Test System: AMES SALMONELLA TYPHIMURIUM, Strain/Indicator: TA100, Metabolic Activation: HAMSTER, LIVER, S-9, Method: STANDARD PLATE): inactive; negative (2×) and active; positive
- mutagenic call (Test System: AMES SALMONELLA TYPHIMURIUM, Strain/Indicator: TA100, Metabolic Activation: MOUSE, LIVER, S-9, AROCLOR 1254, Method: STANDARD PLATE): inactive; negative (2×) and active; positive
- mutagenic call (Test System: AMES SALMONELLA TYPHIMURIUM, Strain/Indicator: TA100, Metabolic Activation: MOUSE, LIVER, S-9, Method: STANDARD PLATE): inactive; negative (2×) and active; positive
- mutagenic call [2]: inactive; negative (2×) and active; positive
- mutagenic call (Test System: AMES SALMONELLA TYPHIMURIUM, Strain/Indicator: TA100, Metabolic Activation: RAT, LIVER, S-9, Method: STANDARD PLATE): inactive; negative (2×) and active; positive

Structure (SMILES): O=C(Cl)c1ccc([N+](=O)[O-])cc1
- mutagenic call [3]: inactive; negative [study A] and active; positive [study B]
- mutagenic call (Test System: Ames Salmonella typhimurium, Strain/Indicator: TA98, Metabolic Activation: None, Method: Preincubation): active; positive (weak response) and active; positive
- mutagenic call (Test System: Ames Salmonella typhimurium, Strain/Indicator: TA98, Metabolic Activation: Rat, Liver, S9, Sodium phenobarbital and 5,6-benzoflavone (10%), Method: Preincubation): inactive; negative and active; positive
- mutagenic call (Test System: Ames Salmonella typhimurium, Strain/Indicator: TA100, Metabolic Activation: None, Method: Preincubation): inactive; negative and active; positive

Structure (SMILES): CCCCBr
- mutagenic call (Test System: Ames Salmonella typhimurium, Strain/Indicator: TA98, Metabolic Activation: None, Method: Gas/vapor modification): inactive; negative (growth inhibition observed at highest dose); also recorded: inactive; negative (growth inhibition observed at 2 highest doses)
- mutagenic call (Test System: Ames Salmonella typhimurium, Strain/Indicator: TA98, Metabolic Activation: Rat, Liver, S-9, Phenobarbital and 5,6-benzoflavone, Method: Gas/vapor modification): inactive; negative (growth inhibition observed at highest dose); also recorded: inactive; negative (growth inhibition observed at 2 highest doses)
- mutagenic call (Test System: Ames Salmonella typhimurium, Strain/Indicator: TA100, Metabolic Activation: None, Method: Gas/vapor modification): active; positive; also recorded: active; positive (growth inhibition observed at 2 highest doses)
- mutagenic call (Test System: Ames Salmonella typhimurium, Strain/Indicator: TA100, Metabolic Activation: Rat, Liver, S-9, Phenobarbital and 5,6-benzoflavone, Method: Gas/vapor modification): active; positive; also recorded: active; positive (growth inhibition observed at 2 highest doses)
- mutagenic call (Test System: Ames Salmonella typhimurium, Strain/Indicator: TA1535, Metabolic Activation: None, Method: Gas/vapor modification): active; positive; also recorded: active; positive (growth inhibition observed at 2 highest doses)
- mutagenic call (Test System: Ames Salmonella typhimurium, Strain/Indicator: TA1535, Metabolic Activation: Rat, Liver, S-9, Phenobarbital and 5,6-benzoflavone, Method: Gas/vapor modification): active; positive; also recorded: active; positive (growth inhibition observed at 2 highest doses)
- mutagenic call (Test System: Ames Salmonella typhimurium, Strain/Indicator: TA1537, Metabolic Activation: None, Method: Gas/vapor modification): inactive; negative (growth inhibition observed at highest dose); also recorded: inactive; negative (growth inhibition observed at 2 highest doses)
- mutagenic call (Test System: Ames Salmonella typhimurium, Strain/Indicator: TA1537, Metabolic Activation: Rat, Liver, S-9, Phenobarbital and 5,6-benzoflavone, Method: Gas/vapor modification): inactive; negative (growth inhibition observed at highest dose); also recorded: inactive; negative (growth inhibition observed at 2 highest doses)
- mutagenic call (Test System: E. coli, Strain/Indicator: WP2uvrA/pKM101, Metabolic Activation: None, Method: Gas/vapor modification): active; positive; also recorded: active; positive (growth inhibition observed at 2 highest doses)
- mutagenic call (Test System: E. coli, Strain/Indicator: WP2uvrA/pKM101, Metabolic Activation: Rat, Liver, S-9, Phenobarbital and 5,6-benzoflavone, Method: Gas/vapor modification): active; positive; also recorded: active; positive (growth inhibition observed at 2 highest doses)

Structure (SMILES): O=CCCCC=O
- mutagenic call (End Point: IN VITRO CHROMOSOMAL ABERRATIONS, Test System: CHL CELLS, Metabolic Activation: NONE): active; positive (structural changes); authors report equivocal results for ploidy chang; also recorded: active; positive (structural changes)
- mutagenic call [4]: active; positive [study A] and inactive; negative [study B] and inactive; negative [study C]
- mutagenic call (Test System: E. COLI, Strain/Indicator: WP2 (PKM101), Metabolic Activation: NONE, Method: STANDARD PLATE): active; positive [study A] and inactive; negative [study B]

Structure (SMILES): OCC(Cl)CCl (configuration not stated)
- mutagenic call [3]: inactive; negative [study A] and active; positive [study B]

— PubChem BioAssay AID1259407 (Chemical Carcinogenesis Research Information System (CCRIS), 2018)
